Reference: PubChem BioAssay AID1460 (National Center for Advancing Translational Sciences (NCATS), 2008)
Out of some 270,000 compounds screened, about 5,800 (2.1%) were called active. Inconclusive means that the source gave no clear call. Such entries were picked first, then a sample of the others. The call rests on the fitted dose curve; in most records, active means well fitted inhibition curve with a large enough effect; inconclusive means small, poorly fitted or top-dose-only effect; inactive means flat fitted curve, though single readings scatter. Potencies beside an inconclusive call are fits to weak or partial responses and may not hold up.

Biological target: Microtubule-associated protein tau (Homo sapiens) (UniProt P10636)
Assay: qHTS for Inhibitors of Tau Fibril Formation, Thioflavin T Binding; further: nearly all actives have a fitted effect of over 55% in size
Details: recombinant tau K18 P301L (four-repeat tau fragment), heparin-induced fibrillization, ThT fluorescence; series mostly up to 57.4 µM
In short: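 Tau K18 P301L fragment (15 uM unlabeled plus 0.24 uM Alexa 594-labeled) in 100 mM sodium acetate pH 7 with compound, fibrillization induced by 20 uM heparin for 6 hr at 37 C. Thioflavin T (30 uM) added, fluorescence read after 1 hr (ex 450, em 510 nm).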
On the % scale 0 is the no-effect control and ±100 the full control effect; potency means the concentration at half of the fitted maximal effect; tags describe the fitted curve by direction and shape.

Sequence of UniProt P10636 (P10636 whole entry, looked up): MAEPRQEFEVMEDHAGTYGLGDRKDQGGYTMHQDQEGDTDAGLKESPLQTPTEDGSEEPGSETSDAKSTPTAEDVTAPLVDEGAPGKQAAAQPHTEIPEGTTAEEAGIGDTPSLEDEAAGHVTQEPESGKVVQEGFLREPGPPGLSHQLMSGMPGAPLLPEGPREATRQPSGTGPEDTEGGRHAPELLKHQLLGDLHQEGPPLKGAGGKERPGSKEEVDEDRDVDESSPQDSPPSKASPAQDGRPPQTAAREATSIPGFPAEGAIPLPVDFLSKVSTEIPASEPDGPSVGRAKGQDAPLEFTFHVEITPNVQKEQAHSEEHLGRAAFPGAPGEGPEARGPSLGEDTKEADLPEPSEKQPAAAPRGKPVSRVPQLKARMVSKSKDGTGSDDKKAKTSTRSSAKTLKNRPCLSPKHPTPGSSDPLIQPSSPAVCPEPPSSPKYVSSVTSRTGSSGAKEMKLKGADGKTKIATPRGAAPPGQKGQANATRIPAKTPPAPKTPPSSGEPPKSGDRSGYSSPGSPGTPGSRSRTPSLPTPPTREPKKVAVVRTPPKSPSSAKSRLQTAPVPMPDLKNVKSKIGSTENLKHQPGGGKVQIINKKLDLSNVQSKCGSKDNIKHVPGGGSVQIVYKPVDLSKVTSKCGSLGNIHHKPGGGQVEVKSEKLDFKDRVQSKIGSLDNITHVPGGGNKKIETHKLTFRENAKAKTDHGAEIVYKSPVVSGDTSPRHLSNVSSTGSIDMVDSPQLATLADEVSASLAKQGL

SMILES	Potency	activity, negative = inhibition
COCCNc1nc(-c2cc(C)n(CCc3ccc(OC)cc3)c2C)cs1	inconclusive: 17.8 µM [inhibitor, partial curve]	
CNc1oc(/C=C/c2cc(OC)c(OC)c(OC)c2)nc1C#N	inconclusive: 20 µM [inhibitor, single point]	
COC(=O)N/N=C/c1cc(N=Nc2ccccc2Cl)ccc1O	active: 1.58 µM	
O=C(CCn1c(=O)c2cccn2c2cccnc21)N1CCN(c2ccc(Cl)cc2)CC1	inconclusive: 14.1 µM [inhibitor, partial curve, poor fit]	
COc1ccccc1Oc1nc2c(c(=O)n(Cc3ccccc3F)c(=O)n2C)n1C	inconclusive: 11.2 µM [inhibitor, partial curve]	
O=c1cc(-c2ccccc2)[nH]c2ccccc12	inactive	
O=C(COc1ccccc1F)Nc1nnc(-c2ccncc2)s1	inactive	
CO/N=C/c1cc([N+](=O)[O-])ccc1Sc1ccc(C)cc1	inactive	
CN=Cc1cc(-c2ccccc2)sc1O	inconclusive: 3.98 µM [inhibitor, partial curve, poor fit]	
C/C(=N\Nc1ccc(Cl)c(C(=O)O)c1)c1cc2ccccc2o1	inconclusive: 10 µM [inhibitor, partial curve]	
Cc1cccc(-c2noc(-c3ccccc3C(=O)NCc3ccco3)n2)c1	inconclusive: 39.8 µM [inhibitor, single point]	
COc1ccc(CN(CCC#N)C(=S)NC(=O)c2ccccc2)cc1	inactive	
COC(=O)c1sc2nc(N)c(C#N)cc2c1N	inconclusive: 10 µM [inhibitor, partial curve]	
COc1ccccc1N1CCN(C(=O)c2cc(-c3cccc(Cl)c3)on2)CC1	inconclusive: 6.31 µM [inhibitor, partial curve]	
COc1ccc(NC2=C(Cl)C(=O)N(CCc3ccccc3)C2=O)cc1	inconclusive: 3.16 µM [inhibitor, full curve]	
CCOC(=O)C1CCN(c2nc3ccccc3nc2Cl)CC1	inconclusive: 20 µM [inhibitor, partial curve, poor fit]	
CCOc1ccc2nc(NC(=S)N(C)C)sc2c1	inconclusive: 14.1 µM [inhibitor, partial curve]	
COc1ccc(NC(=O)c2oc3ccccc3c2NC(=O)c2cc(C)cc(C)c2)c(OC)c1	inactive	
CN1CCN(S(=O)(=O)c2cccc(C(=O)Nc3sc4c(c3C(N)=O)CCCC4)c2)CC1	inconclusive: 44.7 µM [inhibitor, single point]	
COC(=O)c1c(-c2cccs2)csc1NC(=O)c1cccnc1	inactive	
CN1CCN(C2=C(Cl)C(=O)N(c3cccc(Cl)c3)C2=O)CC1	active: 22.4 µM	
Cc1cc2oc(C(=O)N(Cc3ccc(N(C)C)cc3)CC3CCCO3)c(C)c2cc1Cl (centres undefined)	inconclusive: 39.8 µM [inhibitor, single point]	
CSc1nc2ccc(NC(=O)C3=NN(c4ccccc4)C(=O)CC3)cc2s1	inconclusive: 12.6 µM [inhibitor, partial curve, poor fit]	
CN1C(=O)Cc2cc(S(=O)(=O)CCC(=O)N3CCN(c4ccc(Cl)cc4)CC3)ccc21	inconclusive: 12.6 µM [inhibitor, partial curve, poor fit]	
COC(=O)C1C(=O)C2=C(CC1C)NC(C)=C(C(=O)OC1CCCCC1)C2c1ccc(N(C)C)cc1 (centres undefined)	inconclusive: 8.91 µM [inhibitor, partial curve]	

SMILES	Potency	activity, negative = inhibition
Cc1nc(-c2cccc(NC(=O)c3cc4cc(Br)ccc4oc3=O)c2)cs1	inconclusive: 1.58 µM [inhibitor, full curve]	
Cc1nn(C(C)C(=O)N/N=C/c2ccc(N(C)C)cc2)c(C)c1[N+](=O)[O-] (centres undefined)	inactive	
Cc1ccc(F)cc1NC(=O)c1cccc(N(C)C)c1	inconclusive: 22.4 µM [inhibitor, single point]	
Cc1cccc(NC(=O)CN2NS(=O)(=O)c3ccccc3C2=O)c1	inactive	
COc1ccccc1N1CCN(C(=O)c2ccc3c(=O)n(Cc4ccco4)c(=S)[nH]c3c2)CC1	inactive	
CN(CC(=O)Nc1ccc(Br)cc1)S(=O)(=O)c1cccc2nsnc12	inconclusive: 14.1 µM [inhibitor, partial curve, poor fit]	
COc1ccc(NC(=O)C2CCN(C(=O)c3sc4nc[nH]c(=O)c4c3C)CC2)cc1Cl	inactive	
CCC(c1nnnn1C1CCCC1)N(Cc1cccs1)Cc1cc2cc(C)ccc2[nH]c1=O (centres undefined)	inconclusive: 1.12 µM [inhibitor, full curve]	
O=C(NC(=S)NCCc1ccccn1)c1ccccc1	inactive	
Cc1cc2nc(CCN(Cc3cccnc3)C(=S)Nc3ccccc3)[nH]c2cc1C	inactive	
C/C(=N\NC(=O)COc1ccc(C(C)(C)C)cc1)c1ccc2c(c1)OCCO2	inconclusive: 7.08 µM [inhibitor, partial curve]	
COc1ccc(Cl)cc1NC(=O)CSc1nnc2[nH]c(=O)cc(-c3ccccc3)n12	inconclusive: 11.2 µM [inhibitor, partial curve]	
Cc1ccc2[nH]c(=O)c3cc(C(=O)N(CCCOC(C)C)Cc4ccco4)sc3c2c1	inconclusive: 35.5 µM [inhibitor, single point]	
COC(=O)c1c(NC(=O)CSc2nnnn2-c2ccccc2)sc2c1CCC(C(C)(C)C)C2 (centres undefined)	inactive	
C(=N/N1CCN(c2ccccc2)CC1)/c1ccncc1	inconclusive: 15.8 µM [inhibitor, partial curve, poor fit]	
CCOC(=O)CSc1nc2ccc(N3CCOCC3)cc2c(=O)n1Cc1ccc2c(c1)OCO2	inconclusive: 14.1 µM [inhibitor, partial curve]	
Cc1ccc(OCc2nc(C#N)c(NCCc3ccccc3)o2)cc1	inconclusive: 3.16 µM [inhibitor, partial curve]	
Cc1ccccc1NC(=O)CSC1=Nc2ccccc2C2=NC(Cc3ccccc3)C(=O)N12 (centres undefined)	inactive	
Cc1cc(C(=O)Nc2c(F)c(F)c(F)c(F)c2F)n(-c2ccccc2)n1	inactive	
Cc1ccccc1/C=C/C1=NCCN1	inactive	
COc1ccc(N2CCN(C(=O)CCCn3c(=O)[nH]c4cc(Cl)ccc4c3=O)CC2)cc1	inconclusive: 1.58 µM [inhibitor, full curve]	
C=Cc1ccc(Cn2c(C)c(CNCc3ccc(SC)cc3)c(C(=O)O)c2C)cc1	inactive	
c1ccc(CCNc2nc(-c3ccccn3)cs2)cc1	inconclusive: 15.8 µM [inhibitor, partial curve]	
CN(Cc1ccccc1)c1ccc(-c2nc(-c3ccccc3)no2)cc1[N+](=O)[O-]	inactive	
CC(=O)Nc1cccc(NC(=O)CSc2nccn2C2CCCC2)c1	inactive	

SMILES	Potency	activity, negative = inhibition
O=C(CN1C(=O)c2cccc3cccc1c23)Nc1cccc(F)c1	inactive	
COc1ccc(/C=C2\NC(=S)N(CC3CCCO3)C2=O)c(OC)c1 (centres undefined)	inactive	
C=CCc1ccccc1OCC(=O)N/N=C/c1ccc(OC(C)=O)cc1OC(C)=O	inconclusive: 17.8 µM [inhibitor, partial curve]	
CCc1cccc(NC(=O)c2cc3c(s2)-c2ccccc2OC3)c1	inconclusive: 0.631 µM [inhibitor, full curve, poor fit]	
O=C(Nc1ccccc1F)c1nc(SCc2ccccc2F)ncc1Cl	inactive	
COc1cccc(CNC(=O)c2ccc3c(c2)N(Cc2ccc(F)cc2Cl)C(=O)c2ccccc2S3)c1	inactive	
COc1ccccc1N1CCN(Cc2cc(Br)c(O)c3ncccc23)CC1	inconclusive: 15.8 µM [inhibitor, partial curve]	
O=C(OC1CCOC1=O)c1cc(-c2ccc(Br)cc2)nc2ccccc12 (centres undefined)	inconclusive: 44.7 µM [inhibitor, single point]	
CCCCc1ccc(C2C(C#N)=C(N)SC(N)=C2C#N)s1	active: 25.1 µM	
COc1ccc(C(=O)N2C(=S)NC(=O)/C2=C\c2ccc(C)cc2)cc1	inconclusive: 15.8 µM [inhibitor, partial curve]	
CC(C)Oc1ccc(/C=C(/NC(=O)c2ccccc2)C(=O)NCCC(=O)O)cc1	inactive	
CCOc1ccc(CCNC(=O)Cn2ccc3cc(S(=O)(=O)N4CCCCC4)ccc32)cc1	inactive	
CC(C)(C)C(=O)N1CCN(c2ccc([N+](=O)[O-])c(NCc3cccnc3)c2)CC1	inconclusive: 12.6 µM [inhibitor, partial curve]	
CCOC(=O)c1sc(NC(=O)CCN2CCCCCC2)c(C(=O)OCC)c1C	inactive	
O=C(N/N=C/c1ccc(N2CCOCC2)c([N+](=O)[O-])c1)c1ccc(F)cc1	active: 11.2 µM	
Oc1ccc(/C=N/NC(=S)Nc2cccnc2)c(O)c1O	active: 1.58 µM	
CCOC(=O)N1CCC(Nc2cc(C)nc3c(-c4ccccc4OC)c(C)nn23)CC1	inconclusive: 31.6 µM [inhibitor, single point]	
O=C(CCc1ccccc1)Nc1ncn[nH]1	inactive	
Oc1ccc2ccccc2c1C=NCc1cn2ccsc2n1	inconclusive: 14.1 µM [inhibitor, partial curve]	
CC(=O)Nc1cccc(-n2nnc(SCC(=O)N(C)c3ccccc3)n2)c1	inactive	
O=C(Nc1cccc([N+](=O)[O-])c1)c1ccncc1	inactive	
CO[C@H]1COC(=O)[C@H]2CCCN2C(=O)C/C=C\[C@@H](C)[C@H](OC)COC(=O)C/C=C\[C@@H]1C		inactive: -5.91% [at 11.5 µM]
CCOc1ccc(CNC(=O)c2cnc3c(C)cccn3c2=O)cc1	inactive	
CN(C)c1nc(NCc2ccccc2)nc(N/N=C/c2ccc(Cl)cc2Cl)n1	inactive	
